The other results are listed elsewhere or left out. The full chains were built here from the parent and the listed change. Inactive controls read about 0.05.
B1: TEV protease; numbered along this chain (parent)
chain: MGESLFKGPRDYNPISSSICHLTNESDGHTTSLYGIGFGPFIITNKHLFRRNNGTLVVQSLHGVFKVKDTTTLQQHLVDGRDMIIIRMPKDFPPFPQKLKFREPQREERICLVTTNFQTKSMSSMVSDTSCTFPSGDGIFWKHWIQTKDGQCGSPLVSTRDGFIVGIHSASNFTNTNNYFTSVPKNFMELLTNQEAQQWVSGWRLNADSVLWGGHKVFMVKPEEPFQPVKEATQL

Variants of: B1
Assay: raw area under fraction-flipped curve 0-4 h after induction (AUC4h, not background-subtracted), DNA-recorder readout of cleavage of the substrate (dimensionless); higher = more cleavage of the substrate by the protease variant
Details: temperature: 34 °C; time window: 0-4 h after rhamnose induction
Procedure: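 In vivo DNA recorder in E. coli TOP10(DE3) ΔrhaA at 34 °C. Each TEVp single-site mutant (parent TEVp 0) is paired with a single-site variant of the 7-mer TEVs (canonical ENLYFQ|S). The substrate sits between flexible linkers in a Bxb1-sfGFP-TEVs-SsrA fusion, so cleavage stabilises Bxb1 and speeds flipping of a recombination array, read by NGS. The value is the raw area under the fraction-flipped curve over 0-4 h after rhamnose induction (AUC4h), with ≥20 reads per time point. It is not background-subtracted; inactive controls average about 0.047.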
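Also: Bxb1 expression induced with 0.2% (w/v) L-rhamnose at OD600 near 0.5, cultures sampled hourly, flipped fraction per protease–substrate barcode pair counted by paired-end Illumina sequencing.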

| Variant | area with substrate ANLYFQS | area with substrate CNLYFQS | area with substrate DNLYFQS | area with substrate LNLYFQS | area with substrate MNLYFQS | area with substrate SNLYFQS | area with substrate TNLYFQS | area with substrate FNLYFQS | area with substrate GNLYFQS | area with substrate KNLYFQS | area with substrate NNLYFQS | area with substrate PNLYFQS | area with substrate RNLYFQS | area with substrate WNLYFQS | area with substrate YNLYFQS | area with substrate HNLYFQS | area with substrate INLYFQS | area with substrate QNLYFQS | area with substrate VNLYFQS |
| --- | --- | --- | --- | --- | --- | --- | --- | --- | --- | --- | --- | --- | --- | --- | --- | --- | --- | --- | --- |
| MGESLFKGPRDYNPISSSICHLTNESDGHTTSLYGIGFGPFIITNKHLFRRNNGTLVVQSLHGVFKVKDTTTLQQHLVDGRDMIIIRMPKDFPPFPQKLKFREPQREERICLVTTNFQTKSMSSMVSDTSCTFPSGDGIFWKHWIQTKDGQCGSPLVSTRDGFIVGIHSASNFTNTNNYFTSVPKNFMELLTNQEAQQWVKGWRLNADSVLWGGHKVFMVKPEEPFQPVKEATQL [S201K] | 0.0767 | 0.0816 | 0.0657 | 0.0518 | 0.0711 | 0.0832 | 0.0775 |  |  |  |  |  |  |  |  |  |  |  |  |
| MGESLFKGPRDYNPISSSICHLTNESDGHTTSLYGIGFGPFIITNKHLFRRNNGTLVVQSLHGVFKVKDTTTLQQHLVDGRDMIIIRMPKDFPPFPQKLKFREPQREERICLVTTNFQTKSMSSMVSDTSCTFPSGDGAFWKHWIQTKDGQCGSPLVSTRDGFIVGIHSASNFTNTNNYFTSVPKNFMELLTNQEAQQWVSGWRLNADSVLWGGHKVFMVKPEEPFQPVKEATQL [I139A] | 0.052 | 0.0729 | 0.06 | 0.0683 |  | 0.0567 | 0.0604 | 0.0627 | 0.0633 | 0.0813 | 0.0488 | 0.0645 | 0.074 | 0.0698 | 0.0535 |  |  |  |  |
| MGESLFKGPRDYNPISSSICHLTNESDGHTTSLYGIGFGPFIITNKHLFRRNNGTLVVQSLHGVFKVKDTTTLQQHLVDGRDMIIIRMPKDFPPFPQKLKFREPQREERICLVTTNFQTKSMSSMVSDTSCTFPSGDGIFWKHWIQTKDGQCGSPLVSTRDGFIVGIHSASNFTNTNNYFTSVPKNFMELLTNQEAQQWVSGWRLNADSVLWGGHKVFMVKPEEPFQPVKEATKL [Q234K] | 0.0742 | 0.0537 | 0.0641 | 0.0652 | 0.0785 | 0.0765 | 0.0694 | 0.0571 | 0.0648 |  | 0.073 | 0.0683 | 0.0562 | 0.0575 | 0.0516 | 0.0637 | 0.0644 | 0.107 |  |
| MGESLFKGPRDYNPISSSICHLTNESDGHTTSLYGIGFGPFIIWNKHLFRRNNGTLVVQSLHGVFKVKDTTTLQQHLVDGRDMIIIRMPKDFPPFPQKLKFREPQREERICLVTTNFQTKSMSSMVSDTSCTFPSGDGIFWKHWIQTKDGQCGSPLVSTRDGFIVGIHSASNFTNTNNYFTSVPKNFMELLTNQEAQQWVSGWRLNADSVLWGGHKVFMVKPEEPFQPVKEATQL [T44W] | 0.0499 | 0.0545 | 0.0377 | 0.0463 | 0.0415 | 0.0452 | 0.0484 | 0.0538 | 0.0429 | 0.0503 | 0.067 | 0.0438 | 0.0563 | 0.0392 | 0.0379 | 0.0383 | 0.0458 | 0.0458 |  |
| MGESLFKGPRDYNPISSSICHLTNESDGHTTSLYGIGFGPFIITNKHLFRRNNGTLVVQSLHGVFKVKDTTTLQQHLVDGRDMIIIRMPKDFPPFPQKLKFREPQREERICLVTTNFQTKSMMSMVSDTSCTFPSGDGIFWKHWIQTKDGQCGSPLVSTRDGFIVGIHSASNFTNTNNYFTSVPKNFMELLTNQEAQQWVSGWRLNADSVLWGGHKVFMVKPEEPFQPVKEATQL [S123M] | 0.0524 | 0.0702 | 0.0195 | 0.0752 |  |  | 0.0553 | 0.0647 | 0.0614 | 0.0862 |  | 0.0636 | 0.062 | 0.0562 |  | 0.0608 | 0.0587 |  |  |
| MGESLFKGPRDYNPISSSICHLTNESDGHTTSLYGIGFGPFIITNKHLFRRNNGTLVVQSLHGVFKVKDTTTLQQHLVDGRDMIIIRMPKDFPPFPQKLKFREPQREERICLVTTNFQTKSMSSMVSDTSCTFPSGDGGFWKHWIQTKDGQCGSPLVSTRDGFIVGIHSASNFTNTNNYFTSVPKNFMELLTNQEAQQWVSGWRLNADSVLWGGHKVFMVKPEEPFQPVKEATQL [I139G] | 0.0568 | 0.0685 | 0.0939 |  |  | 0.0615 | 0.0591 | 0.0616 |  | 0.0659 |  | 0.0504 | 0.067 | 0.0596 |  | 0.0626 |  | 0.0599 | 0.054 |
| MGESLFKGPRDYNWISSSICHLTNESDGHTTSLYGIGFGPFIITNKHLFRRNNGTLVVQSLHGVFKVKDTTTLQQHLVDGRDMIIIRMPKDFPPFPQKLKFREPQREERICLVTTNFQTKSMSSMVSDTSCTFPSGDGIFWKHWIQTKDGQCGSPLVSTRDGFIVGIHSASNFTNTNNYFTSVPKNFMELLTNQEAQQWVSGWRLNADSVLWGGHKVFMVKPEEPFQPVKEATQL [P14W] | 0.0591 | 0.0646 | 0.0737 | 0.0367 | 0.0691 | 0.0511 | 0.0639 | 0.0501 | 0.0367 | 0.0597 | 0.0692 | 0.0741 |  | 0.0581 | 0.0696 | 0.0734 | 0.067 |  | 0.0739 |
| MGESLFKGPRDYNPISSSICHLTNESDGHTTSLYGIGFGPFIITNKHLFRRNNGTLVVQSLDGVFKVKDTTTLQQHLVDGRDMIIIRMPKDFPPFPQKLKFREPQREERICLVTTNFQTKSMSSMVSDTSCTFPSGDGIFWKHWIQTKDGQCGSPLVSTRDGFIVGIHSASNFTNTNNYFTSVPKNFMELLTNQEAQQWVSGWRLNADSVLWGGHKVFMVKPEEPFQPVKEATQL [H62D] | 0.019 | 0.0605 | 0.0779 | 0.0664 | 0.0668 | 0.0756 | 0.0635 | 0.0687 |  | 0.0634 | 0.058 | 0.0652 |  | 0.063 |  | 0.0577 | 0.0755 | 0.053 | 0.0578 |
| MGESLFKGPRDYNPISSSICHLTNESDGLTTSLYGIGFGPFIITNKHLFRRNNGTLVVQSLHGVFKVKDTTTLQQHLVDGRDMIIIRMPKDFPPFPQKLKFREPQREERICLVTTNFQTKSMSSMVSDTSCTFPSGDGIFWKHWIQTKDGQCGSPLVSTRDGFIVGIHSASNFTNTNNYFTSVPKNFMELLTNQEAQQWVSGWRLNADSVLWGGHKVFMVKPEEPFQPVKEATQL [H29L] | 0.0713 | 0.057 | 0.0957 |  | 0.0662 |  | 0.0608 | 0.0655 | 0.0577 | 0.0714 | 0.08 | 0.0579 |  | 0.0579 | 0.0681 | 0.0593 |  | 0.0716 | 0.067 |
